Substitutions are numbered along the chain they refer to. Results are given in words; binding and its absence hold for the method and conditions named. In cells and extracts the contact can be indirect. Some results given as binding are weak or reduced against the parent protein; the word gives no strength. Values belong to the binder of their own block, whether it stands above or below them.
Key:
[1] = biological target: T1, mesencephalic astrocyte-derived neurotrophic factor (MANF), expressed in HEK293 cells (human) (UniProt P55145); assay: co-IP; lysates from HEK293 cells expressing Best1 and MANF; Best1 detected in the precipitated immunocomplexes
T1 sequence: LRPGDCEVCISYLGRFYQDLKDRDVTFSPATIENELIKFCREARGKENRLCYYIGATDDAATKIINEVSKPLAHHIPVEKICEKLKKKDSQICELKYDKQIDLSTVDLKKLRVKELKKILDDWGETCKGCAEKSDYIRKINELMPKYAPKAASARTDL

[2] = biological target: T2, mesencephalic astrocyte-derived neurotrophic factor (MANF) in ARPE-19 cells (human) (UniProt P55145); assay: proximity ligation; Duolink proximity ligation assay (DPLA) kit; stable lines prepared from ARPE-19 expressing wt Best1 or mutated variants
T2 sequence: T1 sequence

- binding [1]: binds
B1: human bestrophin1 (Best1), wild type, expressed in HEK293 cells (protein, UniProt O76090 1-585)
chain: MTITYTSQVANARLGSFSRLLLCWRGSIYKLLYGEFLIFLLCYYIIRFIYRLALTEEQQLMFEKLTLYCDSYIQLIPISFVLGFYVTLVVTRWWNQYENLPWPDRLMSLVSGFVEGKDEQGRLLRRTLIRYANLGNVLILRSVSTAVYKRFPSAQHLVQAGFMTPAEHKQLEKLSLPHNMFWVPWVWFANLSMKAWLGGRIRDPILLQSLLNEMNTLRTQCGHLYAYDWISIPLVYTQVVTVAVYSFFLTCLVGRQFLNPAKAYPGHELDLVVPVFTFLQFFFYVGWLKVAEQLINPFGEDDDDFETNWIVDRNLQVSLLAVDEMHQDLPRMEPDMYWNKPEPQPPYTAASAQFRRASFMGSTFNISLNKEEMEFQPNQEDEEDAHAGIIGRFLGLQSHDHHPPRANSRTKLLWPKRESLLHEGLPKNHKAAKQNVRGQEDNKAWKLKAVDAFKSAPLYQRPGYYSAPQTPLSPTPMFFPLEPSAPSKLHSVTGIDTKDKSLKTVSSGAKKSFELLSESDGALMEHPEVSQVRRKTVEFNLTDMPEIPENHLKEPLEQSPTNIHTTLKDHMDPYWALENRDEAHS

- binding [2]: binds weakly
B2: Val86Met-mutated Best1, in a stable ARPE-19 line (protein, UniProt O76090 1-585)
chain: B1 chain with V86M

- binding [2]: binds
B4: human bestrophin1 (Best1), wild type, in a stable ARPE-19 line (protein, UniProt O76090 1-585)
chain: B1 chain

Further lines, the binder ahead of its results:

B3: Glu300Asp-mutated Best1, in a stable ARPE-19 line (protein, UniProt O76090 1-585)
chain: B1 chain with E300D
- binding [2]: no binding

B5: Arg218Ser-mutated Best1, in a stable ARPE-19 line (protein, UniProt O76090 1-585)
chain: B1 chain with R218S
- binding [2]: no binding

B6: Arg218Ser-mutated Best1, expressed in HEK293 cells (protein, UniProt O76090 1-585)
chain: B1 chain with R218S
- binding [1]: no binding

B7: Val86Met-mutated Best1, expressed in HEK293 cells (protein, UniProt O76090 1-585)
chain: B1 chain with V86M
- binding [1]: binds weakly

B8: Glu300Asp-mutated Best1, expressed in HEK293 cells (protein, UniProt O76090 1-585)
chain: B1 chain with E300D
- binding [1]: no binding

From paper PMC5796741
